Measurements from article PMC12136788.
The list shows a part of the results.

T1: UNK ZnF1-3 (human, UniProt Q9C0B0 31-174)
T1 sequence: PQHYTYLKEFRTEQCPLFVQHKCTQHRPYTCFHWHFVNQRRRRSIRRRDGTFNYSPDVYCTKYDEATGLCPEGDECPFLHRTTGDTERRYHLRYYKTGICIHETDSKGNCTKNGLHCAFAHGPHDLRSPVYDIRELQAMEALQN

B1: chr14:76904430:76904431:+_ENSMUSG00000022010_ENSMUST00000022587|mus_mus|mus_mus_mus_hu_True|1_18 (ssRNA)
RNA: GGGAGUUCUACAGUCCGACGAUCUGCAGCCAAAAACACCCUCGUGGAAAAAAAGAGGGAACACCAGCAGCCUUGUAUAAGCUAGAUAAAAUCUUCUGGCUUUCCGCAGCCCAGGGAGUGAGAACGGACGGCAGCCCUCGAGUGCAACAGAGGAUUGAGCAUCA
B2: chr15:80415083:80415084:+_ENSG00000086666_ENST00000558494|hu_hu|FALSE|FALSE (ssRNA)
RNA: GGGAGUUCUACAGUCCGACGAUCAUCUUCUGUUUCAGGUACUGCUUUGUCCACAGAUGUACUGUCCAAUUGAGAAGAUGCUACAGAUUCUGAUAAAAGUGACUGAUUUGAUACAGGGCUGGGCUGCAUAGAUGAAGAUGUAGACAACAGAGGAUUGAGCAUCA
B3: 123345274_123345525_2894_CDS_ENSG00000130787_ENST00000253083|human|control|control (ssRNA)
RNA: GGGAGUUCUACAGUCCGACGAUCAUUGACUGUGCGAGAACAUUCCUGCAGGCGGCUCAGGUGGGGGCUGUGCUUGUUGGCCUUCACCUUGGAGGCCGCCACCAGCUGGGCCGUGCUGGCUGCGAUCUCGUGGGAGCAGACGAUCAACAGAGGAUUGAGCAUCA
B4: chr11:22897662:22897663:+_ENSMUSG00000007739_ENSMUST00000173867|mus_mus|FALSE|FALSE (ssRNA)
RNA: GGGAGUUCUACAGUCCGACGAUCGCAAAACUGAAUAAGCCCAAUCUUAGCCUUUUCAACUCUUGUUAUGCCAGAAUUUGCUACUUUCUGUGUGAGAACGAGGCCUUCCACCAGCUCACAGUCAUCUAUUGUCCCACCAAGCUUCAACAGAGGAUUGAGCAUCA
B5: chr11:118639009:118639010:-_ENSG00000110367_ENST00000264018|hu_hu|FALSE|FALSE (ssRNA)
RNA: GGGAGUUCUACAGUCCGACGAUCUUCAAGUAAGGGAAUGAGGUAGGCACCGCUCUUGCCUGUUCCAUUUUUUGCUCUAGCUAAGAUAUCCCUACCAGAUAAAGCAAUGGGAAUGCUCUCCUCCUGAAUAGGAGAUGGCUUUUCCAACAGAGGAUUGAGCAUCA
B6: chr19:8913615:8913616:-_ENSMUSG00000071658_ENSMUST00000096259|mus_mus|FALSE|FALSE (ssRNA)
RNA: GGGAGUUCUACAGUCCGACGAUCGAGGGGGCACCAAACCCUGCCUCAGAUAGGUGCCCCACCCUGCCAGGACUUGGAGCUAAAAAUAUCCGUAGCACUGACAGUUAAUGCAGAGAAGGUCACUAGAGAUGCUCAGACGAGAUCCAACAGAGGAUUGAGCAUCA
B7: chr12:39756943:39756944:-_ENSG00000139116_ENST00000544797|hu_mus|hu_hu_hu_mus_False|18_28 (ssRNA)
RNA: GGGAGUUCUACAGUCCGACGAUCGGUUUGGCUGUUACCCCCAAGGGAAUCCUGCAAGAGUCUUGUCAGCUUAGAGUCUCUGUAAGGGACAUGGGUGGCUCUCUUGCUCUUGUCUCCCAAGGCACUUAUUACAUUCCCAAGAGCCAACAGAGGAUUGAGCAUCA
B8: chr14:27472611:27472612:+_ENSMUSG00000021877_ENSMUST00000022429|perfect_dup|motif|central (ssRNA)
RNA: GGGAGUUCUACAGUCCGACGAUCUUCCAGAAGCAUUUUCUGCAGCACAGCUGCUCCUUCCUGGAUUCUUUCACGAUCAUUGCGGUCGGCCACAAAAAUGAGACCCUGGGUAUUCUGGAAGUAAUGCCUCCAGAGAGGCCUAAUCAACAGAGGAUUGAGCAUCA
B9: 104814329_104835678_237_CDS_ENSMUSG00000062127_ENSMUST00000098763|mouse|control|control (ssRNA)
RNA: GGGAGUUCUACAGUCCGACGAUCUCUGUGUUGGGCCUUUAAAGCUUCUAUAACAAGGUCUCUUGCUUCAAGUUCUCCUUCAAGGAUACUGAACAGUGUCAGGAGUUCAGGCUUGCUGAGUUUUUCCAGAUUCAUCCUGAAAGUCAACAGAGGAUUGAGCAUCA
B10: chr16:1859243:1859244:-_ENSG00000063854_ENST00000397353|hu_hu|motif|central (ssRNA)
RNA: GGGAGUUCUACAGUCCGACGAUCAUCAAGACUGAAUUUCCCGCACGGACCAGCAGGAAAGCCAGUUACCUAAAAGAGCCGGAUCCCCAAAUCCGCUGAAGGUGCAGGGCGGCCUCAGUCCCGGGGCAUCUUGAACUGGUCCUUCAACAGAGGAUUGAGCAUCA
B11: 109521426_109522411_510_CDS_ENSMUSG00000020612_ENSMUST00000049527|mouse|control|control (ssRNA)
RNA: GGGAGUUCUACAGUCCGACGAUCCAGCACAUUCUUUUCGAUGGCCUUGGCUAAAGCAGCCAUUGUCUUAUAAUCUUUUGGAAUAACCUUUCUAACGUAGGAGGCAGCAUCCUCCUCAGUGUAAACUUCAGCACUGAUAGCACCCAACAGAGGAUUGAGCAUCA
B12: chr16:2758876:2758877:+_ENSG00000167977_ENST00000301738|hu_hu|motif|central (ssRNA)
RNA: GGGAGUUCUACAGUCCGACGAUCAAUUUUAGUGAAUUAAGUCUUAAUAUCUUUAAAUUAAAAAAACCACAAGCCGGUCGGCGGUGUCAAGGUCAAAAAUCAAACAACGCUAAGCGGCCAGCAGCUCCCCAGAGAGGAUGCCCACAACAGAGGAUUGAGCAUCA
B13: chr9:49312907:49312908:-_ENSMUSG00000039542_ENSMUST00000166811|mus_hu|FALSE|FALSE (ssRNA)
RNA: GGGAGUUCUACAGUCCGACGAUCAGCUGCAAUUUGGCAUUCGUCCUAUAAAAUAAGAGUCUACGUGGGAAUUGAAUUCAGCUAGAAAGGGUGACACACUUUGCAUACUGAACAAAUACAAAGUGAACAGAAAUUAUAACUUAUCAACAGAGGAUUGAGCAUCA
B14: chr3:179287964:179287965:+_ENSG00000136518_ENST00000429709|hu_hu|hu_hu_hu_mus_True|68_108 (ssRNA)
RNA: GGGAGUUCUACAGUCCGACGAUCCUUUAGAGGUGAAAUGGCCUCCAUGUUCUCCCUGGGCACGCGGAGAGCAUUAGUGUCUAUGUAGUAGGUGGGCCCGCCCUGCUUGCCUUUGUCACCAUCAAUCUCCAUCAUUGUACUUCCCAACAGAGGAUUGAGCAUCA

molecular target: T1, UNK ZnF1-3; test: nsRBNS (natural sequence RNA bind-n-seq); RBNS binding buffer (assumed for nsRBNS): 25 mM Tris pH 7.5, 150 mM KCl, 3 mM MgCl2, 0.01% Triton X-100, 500 ug/ml BSA, 20 U/ml SUPERase-In, 4 C; UNK is unkempt and MSI1 is Musashi-1; names of the RNAs are library labels; protein concentration not given here; high values mean tight binding

Going from B1 to B2, the binding signal falls from 1.76 enrichment R to 1.28 enrichment R.

Compared with B3, B4 is higher in binding signal: 0.434 enrichment R for the first, 0.875 enrichment R for the second.

Compared with B5, B6 is higher in binding signal: 0.817 enrichment R for the first, 1.47 enrichment R for the second.

First: B7
Second: B8
The binding signal of the first is lower: 0.77 enrichment R for the first, 0.773 enrichment R for the second.

Compared with B9, B10 is higher in binding signal: 0.475 enrichment R for the first, 0.806 enrichment R for the second.

Going from B11 to B12, the binding signal rises from 0.896 enrichment R to 2.66 enrichment R.

Going from B13 to B14, the binding signal falls from 2.44 enrichment R to 0.833 enrichment R.
